The results in this text go back to the GPR68 mutational scans of Howard et al. (2025).

Scores with a large standard error are left out. Not listed are two conditions whose scores span a narrow range. Read del as a deletion of the residues named and ins as an insertion between two positions. For some of these results: The data file names ogerin without a concentration.

B1: GPR68, Q15743 (parent)
chain: MGNITADNSSMSCTIDHTIHQTLAPVVYVTVLVVGFPANCLSLYFGYLQIKARNELGVYLCNLTVADLFYICSLPFWLQYVLQHDNWSHGDLSCQVCGILLYENIYISVGFLCCISVDRYLAVAHPFRFHQFRTLKAAVGVSVVIWAKELLTSIYFLMHEEVIEDENQHRVCFEHYPIQAWQRAINYYRFLVGFLFPICLLLASYQGILRAVRRSHGTQKSRKDQIQRLVLSTVVIFLACFLPYHVLLLVRSVWEASCDFAKGVFNAYHFSLLLTSFNCVADPVLYCFVSETTHRDLARLRGACLAFLTCSRTGRAREAYPLGAPEASGKSGAQGEEPELLTKLHPAFQTPNSPGSGGFPTGRLA

In series [1] the parent is B1. Briefly: cAMP reporter score (Enrich2 score, wild type = 0); higher = more signal; HEK293T, FACS bins.
The variants in series [2] derive from B1. Briefly: surface expression score (Enrich2 score, wild type = 0); higher = more signal; HEK293T, FACS bins.

T342N: the cAMP reporter score in series [1] (pH 5.5) was -0.211; in series [1] (pH 6) it was 0.138; in series [1] (pH 6, modulator: ogerin) it was 0.525; in series [1] (pH 6.5, modulator: ogerin), 0.65. Besides, in series [2], the surface expression score is 0.59.
For T342Y the same measures were 1.6, 1.67, 1.26, 2.21 and 1.3.
The corresponding values for T342P are 0.673, 1.38, 1.47, 1.24 and 0.904.
The corresponding values for T350F are 0.64, -0.895, -0.087, -0.585 and -0.087.
Consider T350G, for which the cAMP reporter score in series [1] (pH 5.5) is 1.06; in series [1] (pH 6) it was 0.113; in series [1] (pH 6, modulator: ogerin) it was 1.14; in series [1] (pH 6.5, modulator: ogerin), 1.05. For the same variant, the surface expression score in series [2] was 0.377.
The corresponding values for T350M are 0.831, 0.063, 1.06, 0.373 and 0.439.
For T350V the same measures were 0.161, -0.688, 0.349, 0.118 and -0.039.
Take T350S: the cAMP reporter score stood at 0.226 in series [1] (pH 5.5); 0.063 in series [1] (pH 6); 0.143 in series [1] (pH 6, modulator: ogerin); 0.291 in series [1] (pH 6.5, modulator: ogerin). In series [2], the surface expression score is 0.537.
In the case of T350Y, the cAMP reporter score in series [1] (pH 5.5) is -0.222; in series [1] (pH 6), -0.912; in series [1] (pH 6, modulator: ogerin), 0.086; in series [1] (pH 6.5, modulator: ogerin) it was -0.687. The surface expression score in series [2] was -0.597.
For T350Q the same measures were 0.539, 0.528, 0.718, 0.512 and 0.688.
On to T350W, for which the cAMP reporter score in series [1] (pH 5.5) was -0.437; in series [1] (pH 6), -0.095; in series [1] (pH 6, modulator: ogerin) it was 0.387; in series [1] (pH 6.5, modulator: ogerin), -0.468. Further, in series [2], the surface expression score was -0.39.
Consider T350E, for which the cAMP reporter score was -0.133 in series [1] (pH 5.5); 0.384 in series [1] (pH 6); 0.312 in series [1] (pH 6, modulator: ogerin); 0.735 in series [1] (pH 6.5, modulator: ogerin). Besides, the surface expression score in series [2] is -0.192.
For T350H the same measures were 0.67, -0.132, 0.853, 0.437 and 0.195.
For T350R the same measures were 0.211, -0.18, 0.359, 0.657 and 0.514.
For T350K the same measures were 0.698, 1.15, 2.62, 0.215 and 1.07.
Regarding T350P, the cAMP reporter score turned out to be 2.23 in series [1] (pH 5.5); 0.35 in series [1] (pH 6); 1.22 in series [1] (pH 6, modulator: ogerin); 0.942 in series [1] (pH 6.5, modulator: ogerin). For the same variant, the surface expression score in series [2] turned out to be 1.31.
Consider T350C, for which the cAMP reporter score in series [1] (pH 5.5) was 0.01; in series [1] (pH 6, modulator: ogerin), -0.271; in series [1] (pH 6.5, modulator: ogerin) it was 1.01. Moreover, the surface expression score in series [2] amounted to 0.237.
As for T350A, the cAMP reporter score in series [1] (pH 5.5) is 0.292; in series [1] (pH 6) it was -0.67; in series [1] (pH 6, modulator: ogerin), 0.683; in series [1] (pH 6.5, modulator: ogerin), 0.285. In series [2], the surface expression score was determined as 0.094.
The corresponding values for T350N are -0.475, -0.043, -0.332, 0.669 and -0.189.
For the variant T350I, the cAMP reporter score in series [1] (pH 5.5) is 0.151; in series [1] (pH 6) it was -1.28; in series [1] (pH 6, modulator: ogerin), 0.084; in series [1] (pH 6.5, modulator: ogerin), 1.49. For the same variant, the surface expression score in series [2] is -0.21.
For T350L the same measures were 0.217, 0.177, -0.772, -0.368 and -1.45.
As to T350D, the cAMP reporter score was 0.472 in series [1] (pH 5.5); -0.502 in series [1] (pH 6); 0.902 in series [1] (pH 6, modulator: ogerin); 1.07 in series [1] (pH 6.5, modulator: ogerin). Also, in series [2], the surface expression score worked out at 0.698.
For H345_P346insG the same measures were 1.17, 1.88, 0.995, 0.935 and 0.808.
Take H345_A347del: the cAMP reporter score in series [1] (pH 5.5) was 0.13; in series [1] (pH 6), -1.3; in series [1] (pH 6, modulator: ogerin), -0.129; in series [1] (pH 6.5, modulator: ogerin) it was 0.408. Moreover, in series [2], the surface expression score was -0.056.
The corresponding values for F348del are 0.156, -0.045, -0.245, -0.115 and -0.255.
For H345_P346insGS the same measures were 1.33, 0.819, 1.16, 1.65 and 1.68.
In the case of P346_A347insGS, the cAMP reporter score in series [1] (pH 5.5) was -0.019; in series [1] (pH 6), 0.453; in series [1] (pH 6, modulator: ogerin), -0.238; in series [1] (pH 6.5, modulator: ogerin) it was -0.058. Moreover, in series [2], the surface expression score was determined as 0.643.
For Q349del the same measures were 0.532, -0.455, 0.513, 0.463 and 0.77.
P354_G355insG: the cAMP reporter score in series [1] (pH 5.5) was determined as 0.197; in series [1] (pH 6, modulator: ogerin) it was 0.088; in series [1] (pH 6.5, modulator: ogerin) it was 0.447. Also, the surface expression score in series [2] worked out at 0.086.
With K343_L344del, the cAMP reporter score was -0.013 in series [1] (pH 5.5); 0.76 in series [1] (pH 6); 0.628 in series [1] (pH 6, modulator: ogerin); 0.927 in series [1] (pH 6.5, modulator: ogerin). In series [2], the surface expression score was determined as 0.597.
